Measured values from PubChem BioAssay AID1461 (National Center for Advancing Translational Sciences (NCATS), 2008).
In all, about 220,000 compounds went through this assay and about 2,300 (1%) were called active. The shares of active, inactive and inconclusive entries below differ from those in the screen. Calls come from the whole dose curve; as a rule, active = well fitted inhibition curve with a large enough effect; inconclusive = small, poorly fitted or top-dose-only effect, or effect the other way; inactive = no such curve, though single readings can be large or run the other way. No potency is given beside an inconclusive call; the fits are too rough.

The molecules below were run against Neuropeptide S receptor (Homo sapiens) (UniProt Q6W5P4) (assay: qHTS Assay for Antagonists of the Neuropeptide S Receptor: cAMP Signal Transduction). Details: CHO-NPSR cells, cAMP TR-FRET, antagonist mode; activity change, negative = inhibition: at 38.3 µM (top of the series) unless noted.
% is set by controls: 0 for no effect and ±100 for the full control effect; potency is the fitted concentration of half-maximal effect; tags give direction and shape of the fitted curve.
Note: nearly all actives have a fitted effect of over 50% in size.

Chain of UniProt Q6W5P4 (Q6W5P4 whole entry, looked up): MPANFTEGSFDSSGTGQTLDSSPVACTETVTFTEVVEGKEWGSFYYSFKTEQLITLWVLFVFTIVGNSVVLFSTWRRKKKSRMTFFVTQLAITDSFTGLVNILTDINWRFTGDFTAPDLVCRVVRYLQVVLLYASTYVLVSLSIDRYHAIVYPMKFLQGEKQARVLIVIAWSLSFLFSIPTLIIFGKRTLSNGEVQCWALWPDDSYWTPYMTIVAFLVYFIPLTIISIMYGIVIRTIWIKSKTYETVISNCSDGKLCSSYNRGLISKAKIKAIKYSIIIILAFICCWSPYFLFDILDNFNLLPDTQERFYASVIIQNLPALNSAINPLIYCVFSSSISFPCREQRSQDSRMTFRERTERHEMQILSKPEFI

Compound | Potency | activity change, negative = inhibition
O=C(/C=C/c1ccccc1)CC(O)(c1ccccc1)C(F)(F)C(F)F (stereo not drawn) | inconclusive [inhibitor, single point] | –
CCOC(=O)c1ccc(NC(=O)C2(c3ccccc3)CCCC2)cc1 | inconclusive [inhibitor, single point] | –
CCN(CC)c1ccc(NC(=O)c2ccc(Br)o2)cc1 | inconclusive [inhibitor, partial curve] | –
CCOC(=O)N1CCC(n2c(SCC(=O)NCCc3ccc(S(N)(=O)=O)cc3)nc3ccccc3c2=O)CC1 | inconclusive [inhibitor, single point] | –
COC(=O)C1=C(C(=O)OC)SC(=C2C(=S)C(C)(C)N(C(=O)CC(C)C)c3ccccc32)S1 | inconclusive [inhibitor, partial curve] | –
COc1ccc(CN(C)C(=O)c2cnc(OC)cc2C(F)(F)F)c(OC)c1 | – | inactive: -1.73%
Cc1cc(C)nc(/N=C(/NC(=O)Nc2ccc(Cl)c(Cl)c2)Nc2cccc(Cl)c2)n1 | – | inactive: -1.58%
O=C(c1ccc(Cl)c(Cl)c1)c1cc(-c2ccccn2)c(N2CCOCC2)s1 | inconclusive [inhibitor, partial curve] | –
CCOC(=O)c1c(-c2ccc(C)s2)csc1NC(=O)c1cccs1 | inconclusive [inhibitor, single point] | –
COC(=O)C(Cc1csc2ccc(Cl)cc12)NC(=O)c1ccc(Cl)cc1 (stereo not drawn) | – | inactive: 13% [at 7.67 µM]
O=C(Nc1ccc([N+](=O)[O-])cc1)C1CC1(c1ccccc1)c1ccccc1 (stereo not drawn) | inconclusive [inhibitor, single point] | –
c1cncc(-c2nc(NCc3ccc4c(c3)OCO4)c3ccccc3n2)c1 | inconclusive [activator, single point] | –
O=C(Nc1cccc(Cl)c1)N1CCCC1 | inconclusive [activator, single point] | –
COC1=C(N)C(=O)c2nc(-c3nc(C(=O)O)c(C)c(-c4ccc(OC)c(OC)c4O)c3N)ccc2C1=O | – | inactive: 3.39%
CCc1c(C)sc(NC(=O)OC)c1C(N)=O | – | inactive: -1.1% [at 46.1 µM]
Cc1ccnc(NC(c2ccsc2)c2ccc3ccc(C)nc3c2O)c1 (stereo not drawn) | – | inactive: -25.9%
O=C(O)c1ccc2cccc(O)c2n1 | – | inactive: -8.38%
COc1ccc(-c2ccc(-c3noc(-c4cccc(OC)c4)n3)c(OC)n2)cc1 | – | inactive: -4.82% [at 46.1 µM]
O=C(Nc1ccccc1N1CCCCC1)c1cccs1 | inconclusive [inhibitor, partial curve] | –
Cn1cnnc1Sc1nc2c(c(=O)n(C)c(=O)n2C)n1Cc1ccccc1Cl | – | inactive: -0.959% [at 46.1 µM]
Cc1no[n+]([O-])c1COc1ccccc1/C=C1\NC(=S)NC1=O | inconclusive [inhibitor, partial curve, poor fit] | –
O=C(c1ccccc1Oc1ccccc1)N1CCN(c2ccccc2F)CC1 | inconclusive [inhibitor, single point] | –
Oc1c(C(c2cccs2)N2CCN(c3ccccc3)CC2)ccc2cccnc12 (stereo not drawn) | active: 15.8 µM | –
COCC(C)NC(=O)CSc1nc(-c2ccccc2)c(-c2ccccc2)o1 (stereo not drawn) | – | inactive: -21.8% [at 46.1 µM]
Cc1cc(NC(=O)CCCC(=O)Nc2ccc(F)cc2)no1 | – | inactive: -0.719% [at 46.1 µM]

Compound | Potency | activity change, negative = inhibition
COCc1ccc(O)c2ncccc12 | active: 3.98 µM | –
CCN(Cc1ccncc1)C(=O)CCc1nnc(CCc2ccccc2OC)o1 | – | inactive: 15.5%
COc1ccc(OC)c2c1C(=O)c1ccccc1C2=O | – | inactive: -4.87% [at 46.1 µM]
CC12CC(c3ccccc3O1)N(C(=O)c1ccco1)C(=S)N2c1ccc(F)cc1 (stereo not drawn) | inconclusive [inhibitor, partial curve] | –
Cc1cc(/C=N/n2cnnc2)c(C)n1-c1ccc(OCc2ccccc2F)cc1 | inconclusive [inhibitor, single point] | –
CSc1nc2cc(Oc3cccc(Cl)c3Cl)c(Cl)cc2[nH]1 | active: 12.6 µM | –
CCCCNc1c(C(=O)OCC)c(C)nc2c1cnn2CC | inconclusive [inhibitor, single point] | –
O=C(CSc1nnc(-c2cccs2)n1-c1ccccc1)N1CCCc2ccccc21 | inconclusive [inhibitor, single point] | –
CN(c1ccccc1)c1ccc(/C=C/[N+](=O)[O-])cc1 | inconclusive [inhibitor, single point] | –
O=C(C1=C[C@@H](c2ccc(C(F)(F)F)cc2)C[C@@H](OCc2ccc(CO)cc2)O1)N1CCN(Cc2ccccc2)CC1 | inconclusive [activator, partial curve] | –
CCOc1ccc(NC(=O)Cc2ccccc2)cc1 | – | inactive: 18.1%
CCN(CC)c1ccc(C=Nc2ccc(N(C)C)cc2)c(O)c1 | inconclusive [inhibitor, partial curve] | –
O=C(NCCCNc1ccc([N+](=O)[O-])cc1)C(F)(F)F | – | inactive: -7.79%
Cc1ccc(-n2c(SCC(=O)OC(C)C)nnc2-c2ccncc2)cc1 | – | inactive: -13.3% [at 46.1 µM]
CCCOc1ccc(C2c3c(oc4ccccc4c3=O)C(=O)N2CCCN2CCOCC2)cc1 (stereo not drawn) | inconclusive [inhibitor, single point] | –
COc1ccc2c(c1)CCc1sc(NC(=O)c3ccc(C)cc3)nc1-2 | inconclusive [inhibitor, single point] | –
COc1cc([N+](=O)[O-])ccc1NC(=O)Nc1nc2c(s1)CCCC2 | – | inactive: -2.4%
CC1(C)CC(=O)C(C(C2=C(O)CC(C)(C)CC2=O)c2ccco2)C(=O)C1 (stereo not drawn) | – | inactive: -7.25% [at 46.1 µM]
CCOc1ccc(NC(=S)Nc2ccc(OCc3ccccc3)cc2)cc1 | – | inactive: 21.5%
Cc1c(C(=O)N2CCCCC2)oc2ccc(S(=O)(=O)N3CC(C)CC(C)C3)cc12 (stereo not drawn) | inconclusive [inhibitor, single point] | –
COc1cc2c(cc1NC(=O)CCCN1C(=O)CCC1=O)oc1ccccc12 | – | inactive: -4.02% [at 46.1 µM]
Oc1ccc2ccccc2c1C=Nc1ccccc1-c1nc2ccccc2[nH]1 | inconclusive [activator, partial curve] | –
O=C(CCc1ccccc1O)N/N=C/c1ccc(Sc2cccc3cccnc23)o1 | inconclusive [inhibitor, single point] | –
O=C(Oc1cccc2cccnc12)c1cccc([N+](=O)[O-])c1 | inconclusive [activator, partial curve] | –
CCOC(=O)CSc1nc2ccc(Nc3nc(N4CCOCC4)nc(N4CCOCC4)n3)cc2s1 | inconclusive [inhibitor, full curve, poor fit] | –

Compound | Potency | activity change, negative = inhibition
CN(C)S(=O)(=O)c1cccc(NC(=O)CSc2nnnn2-c2ccccc2)c1 | inconclusive [inhibitor, single point] | –
CCOC(=O)c1nnn(-c2nonc2-n2cccc2)c1CN1CCCCC1 | inconclusive [inhibitor, partial curve] | –
CCc1ccc(NC(=O)C2C3C=CC(C4CC34)C2C(=O)O)cc1 (stereo not drawn) | inconclusive [activator, single point] | –
COc1ccccc1/C=C\C=N\n1c(C2CCCCC2)n[nH]c1=S | inconclusive [inhibitor, partial curve] | –
COc1ccccc1CN(C)C(=O)C1COc2ccccc2O1 (stereo not drawn) | – | inactive: -11.4% [at 46.1 µM]
Cc1ccc(Nc2nnc(SCC(=O)Nc3ccccc3[N+](=O)[O-])s2)cc1 | – | inactive: -5.71%
Cc1ccc(/C(O)=C2\C(=O)C(=O)N(c3cc(C)on3)C2c2cccc(Br)c2)cc1 (stereo not drawn) | – | inactive: -15.1% [at 46.1 µM]
Cc1ccc(Cn2cccc(NC(=O)CCC3CCCC3)c2=O)cc1 | inconclusive [inhibitor, single point] | –
CCc1c(C)sc2nc(C(C)C)nc(SCC(=O)N3CCc4ccccc4C3)c12 | inconclusive [inhibitor, single point] | –
Cc1cc(=O)oc(C)c1C(=O)Nc1cccc(F)c1 | – | inactive: 2.54% [at 7.67 µM]
COc1ccc(Cn2c(S(=O)(=O)CC(N)=O)nc3ccccc32)cc1[N+](=O)[O-] | – | inactive: -3.87%
N#Cc1c(-c2ccco2)nc(SCc2ccc(F)cc2)[nH]c1=O | active: 7.94 µM | –
O=C(Nc1cccnc1)C1(F)C(F)(F)C(F)(F)C(F)(F)C(F)(F)C1(F)F | inconclusive [activator, single point] | –
O=C1C(C=Nc2ccccc2O)=C(O)c2ccccc21 | – | inactive: -28.4% [at 46.1 µM]
CCCc1ccc(Oc2cn[nH]c2-c2ccc(O)c(C)c2O)cc1 | active: 10 µM | –
CCN(CC)CCN1C(=O)C(O)=C(C(=O)c2cc3ccccc3o2)C1c1cccnc1 (stereo not drawn) | inconclusive [activator, partial curve] | –
O=C(CN1CCN(c2ccccc2)CC1)Nc1cccc(C(F)(F)F)c1 | – | inactive: -4.21% [at 46.1 µM]
CCOc1ccc(S(=O)(=O)N(C)C)cc1-c1nc2c(C(C)(C)C)nn(C)c2c(=O)[nH]1 | inconclusive [inhibitor, single point] | –
Cc1ccc(C(=O)Nc2ccc(S(=O)(=O)N3CCc4ccccc43)cc2)o1 | inconclusive [inhibitor, partial curve] | –
COc1ccc(N=Cc2c(O)cc(C)oc2=O)cc1 | – | inactive: 8.37%
COc1ccc(C(=O)c2coc3c2C(=O)C(=O)c2ccccc2-3)cc1 | inconclusive [inhibitor, single point] | –
NC(N)=N/N=C/c1ccc(OCc2ccc(Cl)cc2)cc1 | inconclusive [inhibitor, single point] | –
Cc1ccc2nc(Nc3nc(CSc4nnnn4-c4ccccc4)cc(=O)[nH]3)nc(C)c2c1 | inconclusive [inhibitor, partial curve] | –
